# The full ranking holds about 33,000 sequences; the median of “E-score (-0.5 to 0.5)” is about -0.053, and the highest 2% start at about 0.37. Some of the results follow.
# Target: Hap1 (UniProt P0CE41)
# Assay: PBM E-score (8-mer binding enrichment) (E-score (-0.5 to 0.5)); higher = stronger / more preferred TF binding; most listed sequences are background and not binding sites
# Settings: protein concentration: 200 nM; construct: GST-DNA-binding domain
# In short: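 Yeast transcription factors carrying a GST tag, as full-length proteins or DNA-binding domains, were produced by PURExpress in vitro transcription/translation. About 100-200 nM protein was applied to universal all-10-mer Agilent arrays, double-stranded by primer extension on fresh or once-stripped slides. Bound protein was detected with fluorescent anti-GST, and scans were normalised with masliner. The Universal PBM Analysis Suite gave each ungapped eight-base word, pooled with its reverse complement, an E-score, a modified Wilcoxon-Mann-Whitney statistic.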
# Chain of UniProt P0CE41 (P0CE41 whole entry): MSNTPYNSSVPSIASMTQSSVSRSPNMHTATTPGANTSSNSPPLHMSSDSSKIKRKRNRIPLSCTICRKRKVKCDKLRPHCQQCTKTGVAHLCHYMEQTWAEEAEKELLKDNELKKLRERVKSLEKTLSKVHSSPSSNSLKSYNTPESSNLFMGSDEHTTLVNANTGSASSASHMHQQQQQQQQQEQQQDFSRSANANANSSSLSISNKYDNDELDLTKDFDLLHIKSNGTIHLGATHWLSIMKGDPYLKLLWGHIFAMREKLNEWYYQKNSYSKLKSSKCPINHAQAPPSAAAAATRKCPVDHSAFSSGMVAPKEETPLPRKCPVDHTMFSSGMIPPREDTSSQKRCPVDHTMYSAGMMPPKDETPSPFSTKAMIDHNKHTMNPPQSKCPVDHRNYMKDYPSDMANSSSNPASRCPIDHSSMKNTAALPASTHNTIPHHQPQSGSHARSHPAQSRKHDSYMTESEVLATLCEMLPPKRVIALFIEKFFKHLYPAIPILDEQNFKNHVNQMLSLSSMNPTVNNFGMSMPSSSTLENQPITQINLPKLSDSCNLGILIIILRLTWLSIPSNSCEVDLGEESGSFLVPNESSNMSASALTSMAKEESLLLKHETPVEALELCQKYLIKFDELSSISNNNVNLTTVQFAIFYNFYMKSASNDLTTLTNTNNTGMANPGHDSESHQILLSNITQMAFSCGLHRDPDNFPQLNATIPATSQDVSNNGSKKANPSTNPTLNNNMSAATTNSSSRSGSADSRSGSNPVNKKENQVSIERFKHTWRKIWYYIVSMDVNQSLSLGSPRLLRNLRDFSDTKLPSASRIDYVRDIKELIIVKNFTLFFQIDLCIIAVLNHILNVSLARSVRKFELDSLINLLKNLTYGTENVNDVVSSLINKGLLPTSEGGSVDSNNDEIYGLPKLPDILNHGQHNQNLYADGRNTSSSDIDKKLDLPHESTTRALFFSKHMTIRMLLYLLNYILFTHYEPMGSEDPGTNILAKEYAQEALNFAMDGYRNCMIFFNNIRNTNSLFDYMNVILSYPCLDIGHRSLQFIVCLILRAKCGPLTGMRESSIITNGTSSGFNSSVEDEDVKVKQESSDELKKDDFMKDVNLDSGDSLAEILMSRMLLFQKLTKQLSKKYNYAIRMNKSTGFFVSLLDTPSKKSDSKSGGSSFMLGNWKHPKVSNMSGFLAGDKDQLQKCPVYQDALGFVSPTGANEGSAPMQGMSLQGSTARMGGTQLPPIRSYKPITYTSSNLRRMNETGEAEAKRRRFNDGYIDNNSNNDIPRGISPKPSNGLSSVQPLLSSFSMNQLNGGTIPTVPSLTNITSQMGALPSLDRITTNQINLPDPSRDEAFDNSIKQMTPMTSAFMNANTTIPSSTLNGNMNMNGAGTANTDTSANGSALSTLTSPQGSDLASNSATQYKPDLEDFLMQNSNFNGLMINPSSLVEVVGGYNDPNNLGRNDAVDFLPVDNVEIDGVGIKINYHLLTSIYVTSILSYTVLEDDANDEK
row,Sequence,PBM E-score
1,GCCGCCGA,0.26
2,ATTAAGTA,-0.00434
3,CGTTAATA,0.244
4,GGGACAAC,-0.166
5,CGGTTAGC,0.13
6,TATGACAA,-0.185
7,CAATCAGG,-0.151
8,GCCGGCCC,0.372
9,GACTGTCC,0.0286
10,CAAGCTTA,0.0563
11,GGGAAAAC,0.12
12,ACCATTCG,-0.0753
13,CGTAAGTC,0.129
14,ATTGCAAA,-0.0295
15,AATCTGAG,-0.0511
16,CTTTAAAA,0.0441
17,GTGCCCAA,-0.223
18,GAGTATAC,-0.0621
19,CAATACGA,-0.00494
20,ACGGTCTG,-0.122
21,CAGCTACA,-0.156
22,GCCTTGCC,-0.0796
23,GACTAAGC,0.0686
24,TCTGTTAA,-0.142
25,AAACCCCT,-0.0943

row,Sequence,PBM E-score
1,ATTAGAAC,0.0628
2,ACATGAGA,-0.175
3,AGCACGCA,-0.287
4,GGTAAGCA,-0.102
5,ACGGGTTG,-0.145
6,ATGGGCGC,-0.137
7,CTACGCCA,-0.263
8,CCGAAGTC,0.318
9,GCACACCC,-0.223
10,ACTACGCT,-0.102
11,TGCATCCA,-0.202
12,TCAGGGCA,-0.199
13,CTGTTATA,0.0864
14,ACGACGAG,-0.279
15,AAGCTATT,-0.126
16,GATTGTAA,-0.00165
17,AAACGGAG,0.258
18,CAACTTAG,-0.033
19,GATGTTCA,-0.00017
20,GACGGTCC,0.182
21,ACAAGTTG,-0.028
22,AACAAACA,-0.0847
23,AAATTTAG,0.044
24,GCCAACGA,-0.115
25,CCGGAGCG,0.359

row,Sequence,PBM E-score
1,CAACGGGC,0.153
2,CCTGCGTC,-0.00919
3,CAGAGCTC,-0.0017
4,GCACCAAC,0.0137
5,GCGCGACA,0.143
6,GAGTTACC,0.0616
7,ACGGTTCA,0.0385
8,ACGGGCTC,0.0484
9,AGGCACAA,-0.0993
10,AGAGATCT,-0.171
11,GAACCGTC,0.0767
12,GGGAATGA,0.0402
13,GAGGTGCC,0.0217
14,GCCACTTA,-0.117
15,TACGACTA,-0.109
16,ATCTATTG,-0.0635
17,AGACGCGG,0.0872
18,CCCCACTA,-0.0251
19,CAGCATAC,-0.247
20,CAACCTCA,-0.276
21,CGGAAGAA,0.305
22,CTACTGCC,-0.00047
23,GCCCTTGA,-0.242
24,CCCGCAAC,0.277
25,TAGATGAA,-0.196

row,Sequence,PBM E-score
1,ACGCTAGT,-0.105
2,CGGTGGCC,0.234
3,AAAAACTG,-0.2
4,CGGCAGGA,0.175
5,GAGGCTAA,-0.0306
6,AAGCCTCT,-0.281
7,AAGGTGAG,-0.173
8,AAGCTGCA,-0.039
9,CAAATTGA,-0.173
10,TACGAACA,-0.138
11,TTGTTAAA,0.0915
12,CATAATCC,-0.0185
13,AGAACAGG,-0.156
14,GCGCAGTA,0.0654
15,ACTACGTC,-0.0459
16,GATCGTCC,0.164
17,CTTGCCCC,0.0369
18,ATATCTTC,0.152
19,GAATGGGA,-0.138
20,CACGGTTC,-0.0838
21,CCGAATTA,0.282
22,AAGCACCC,-0.0703
23,ATCGAACG,-0.121
24,AAATATGA,-0.252
25,ATGACGCC,-0.0669

row,Sequence,PBM E-score
1,ACCTACCT,0.0276
2,ACATCTGC,-0.281
3,GGTGTCGA,-0.193
4,CTGAGGAC,-0.0707
5,ACATAGTA,-0.133
6,AACTTAAT,0.0202
7,AACATATG,-0.123
8,CCAATCAA,0.00077
9,AGGGTAAA,-0.156
10,CTATGCGA,-0.185
11,CCTTGAGA,-0.0628
12,ACCAGATC,-0.0237
13,CATGACCA,-0.294
14,ATAATCAT,-0.00531
15,CCCGTGCG,0.154
16,GGCTAGCA,-0.00251
17,ACAACGCG,0.0255
18,GAGTGTAA,-0.261
19,AGGGAACC,-0.0577
20,CGATCCTA,-0.0276
21,GAGCTCGC,0.163
22,AAGGAAAA,-0.231
23,CCAGTATC,0.074
24,AAGGCGGC,-0.0382
25,AGGGCAAT,0.022

row,Sequence,PBM E-score
1,CCGTTATA,0.311
2,ACACAGAG,-0.196
3,AGGACAAT,-0.104
4,ATGCATTA,-0.058
5,GATAGCAA,-0.111
6,ACTGAGCC,-0.0979
7,AGAGGAAA,-0.0424
8,CTGTAGAA,-0.0892
9,GAGTCAGA,-0.0372
10,AACTCCGA,0.474
11,ACTAACAG,-0.0789
12,CCAATTAA,-0.169
13,AAAAACGG,0.105
14,AGTGTTAA,-0.0373
15,AAAAGGCC,0.0671
16,AGAGAGAA,-0.177
17,CTGATGGA,-0.236
18,CAATAAAA,-0.174
19,CCGGCTGC,0.23
20,AATCTCTG,-0.274
21,AAAGCTTT,0.21
22,ACAGCCCG,0.144
23,AAAACAGT,0.0339
24,ATAGTCTC,0.0143
25,ACTCAGAC,-0.276

row,Sequence,PBM E-score
1,AGTACGGA,0.258
2,AGTCTGAA,-0.243
3,ACGCCTTG,-0.0738
4,AGCTAAGG,-0.203
5,ACCACCAC,-4e-05
6,AGAAATTC,-0.0807
7,AAATCGCA,-0.0497
8,CAGTGCCG,0.229
9,GCAGATTA,0.0918
10,AATTATTC,-0.0028
11,CGGGGTAG,0.127
12,CAAGGTGG,-0.0167
13,CACAACGA,-0.0452
14,CGCTGCCC,0.0735
15,CCTTGTGA,-0.064
16,CGGTTTCA,0.263
17,ACAATCCG,0.219
18,GGTAAAAC,0.0436
19,ATGGAGGA,-0.136
20,AGGGCGCA,-0.107
21,CTGAGCGA,-0.117
22,GAGGCCTA,-0.152

# Source: the supplement of paper PMC3334620
